Consider 73 sequences from paper PMC10726135.

Some of the results follow. At the low end of the ranking the order means little. Measured with an extract: partners may take part in the binding.

The target of this assay is T1, HNF4alpha8 (COS-7 nuclear extract) (UniProt P41235-5).
T1 sequence: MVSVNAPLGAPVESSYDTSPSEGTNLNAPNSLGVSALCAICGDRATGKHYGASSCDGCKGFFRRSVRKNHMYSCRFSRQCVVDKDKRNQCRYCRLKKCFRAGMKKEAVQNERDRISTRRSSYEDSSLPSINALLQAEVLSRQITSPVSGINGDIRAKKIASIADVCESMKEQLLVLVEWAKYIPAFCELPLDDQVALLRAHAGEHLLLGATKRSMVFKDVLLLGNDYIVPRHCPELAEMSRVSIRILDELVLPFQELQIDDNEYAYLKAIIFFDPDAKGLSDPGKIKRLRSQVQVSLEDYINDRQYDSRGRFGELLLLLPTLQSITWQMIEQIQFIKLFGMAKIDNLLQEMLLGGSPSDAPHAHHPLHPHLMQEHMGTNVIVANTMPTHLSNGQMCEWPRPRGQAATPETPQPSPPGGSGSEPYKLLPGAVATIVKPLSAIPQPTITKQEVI
The assay is described as follows: protein-binding microarray. The note with it: COS-7 nuclear extract on double-stranded Agilent 4x180k PBM; binding buffer, salt, pH and temperature not given; high values mean tight binding; double strand, one strand shown; sequences stand for … in …GCCTAGGGAGATTAGAGTATCGGTCGA
For the sequence CTGGGATATCAGGTATTGCCCAGTATTGAT, the binding signal (log2 normalized intensity) came to 0.695.
As for CTGTTGGGGAGCAAAGGTTAGCAAGGGCCC, the figure is 3.47; as for CCATAACCCTCAGCTCCTCTCCTCCATGGC, -0.777.
The value for TTTGTTGCCTCTTTTCTGCTTTTGGAATTT was 3.37.
As for TTCACATTCCAGTGTTTCAAAGGAGTGTCT, the figure is 0.818; as for ACCTTGTCCCTGGATTGTGTTGCACTGTTT, 2.15; as for CCTCTTGCGTGTTATCTATGGAACATGGAC, 2.5.
Regarding GTTTACTCATGTGGTCCTAAGACTGACCTT, the binding signal (log2 normalized intensity) was 4.61.
Turning to AAGTTATCTTGAGACCTCAAGGGGAGAGGA, the binding signal (log2 normalized intensity) is -1.34.
As to AGAGGAAAAAGTCCCTGGTCCCATAGGAAA, the binding signal (log2 normalized intensity) is -1.28.
As for CTCAACACTGGCTTCTCTGGCCTAGTAAGA, the binding signal (log2 normalized intensity) is -1.3.
The value for TTTCCAGCAAATCCCAATTCACTGACACAA was -1.3; that for ACATGAGGTAGAGGGACACTGATAACACTG was -1.27.
As for TTCTCCTGTGATCTGGATTTTCAGGTTCCC, the figure is 1.51.
As for ACAGCCCTCCAACTATGCTAAGAATGCGAA, the figure is -1.27.
On to TTAAACACGTTTTATTAGGGGTCAGCAAAG, for which the binding signal (log2 normalized intensity) was found to be 2.84.
On to ACCATGCCTATAAATTGCCTGGCTTCAATA, for which the binding signal (log2 normalized intensity) is -0.93.
The value for CTTAGGTACTTTTCTGTTTGTCTTACTGTG was 1.59.
The value for AGAGAAGGAGCCAGAGCTTTGGGAAAAGTG was -1.26; that for AAGCTCTTTCCCTCCACCAAGTTTCCCACA was 2.17; that for TTGAAGTTTTGGCCAACAGAGGGGTCAGAG was 2.98.
Turning to TGCAAGGGCAGCTCCGTTTACCTAGAGGCA, the binding signal (log2 normalized intensity) is -1.44.
The value for AATTTCTCAGATGCCAGCTAAGATCAGTAG was -1.15; that for TGGCCTTTGGCTGTTCGATGTATACAGTAT was 1.64.
The value for TGACAGCATGTTCGGCTGAGACCTGATCAG was 0.596; that for CGGCAGCACAAGGCGGTAGCCATGGCGGAG was -1.42; that for TTCCTTAAGATTAGTTCTTTGTAGGAAGGC was 0.665.
The value for GTCTGCTGCCCAGACACACAATATTATGTT was -0.76; that for GGTAGAGTCTAAGGAGGCAGTAAGATAAGG was -1.38.
Turning to CAGAGAAGATTAGCTCACAGGAAAGGAGAC, the binding signal (log2 normalized intensity) was -1.23.
The value for GGCGAGTGTGCAATTAGAGCAAAGGTTACT was 3.57; that for GTCTTATTCAGCCTCATTGATTTGAACATT was 2.69; that for GGAAACCGCGATTAAAAATGGAACAGTAAG was -1.45.
Consider AGGCTGAAGAAGTTGCTCAGTGTTCCACAG, for which the binding signal (log2 normalized intensity) was -1.36.
The value for AAGACTGCAGCAAAGTCCTCCAACTGCCAC was -1.32; that for GGCAGTGGGACAATGAAGCCTAAATGATAA was -1.38; that for TCTGTAGTGTTGCTCAAGTCTCCTGTTTTC was 1.05.
The value for GATCAAAGGAAACTGCTTGGGCCCCTCCCT was 1.56.
The value for CACCCCACACACACACAGCATTCCATTCAT was 1.31; that for TTTGAAGTTTAGAGATGCCTATAGGGTCTT was 0.989; that for TCAAGATGAAGCAAGAGTCCAAATTCCTAG was 2.77.
For the sequence TACCTTTGAAACCTAAGATGTCACAGGCAA, the binding signal (log2 normalized intensity) is -1.2.
With TAATTAGACAACATCGAAGACTTCATGATA, the binding signal (log2 normalized intensity) is -1.28.
The value for CGTGGGCATGCCTCCCAGAGCATTGTTTAT was -0.764.
Regarding GAAGGACGTCAGAACTGTCCTTTAACCTCC, the binding signal (log2 normalized intensity) is 4.8.
Take CTGCCTTAGTCCCAGTATGGTCTCAGTAAT: the binding signal (log2 normalized intensity) was found to be 0.518.
The value for GGAAATGGATTGCCTCCTAAGGCCTCCAGA was -1.34; that for ATCTGGGCCAAGGCAGATATACCAGATAAG was -1.28; that for ACCAGTGGACCATGAGAAACATCCACATGT was -1.13.
The value for TCTGTCTTTGATCTGCTATCTCAGATAGCT was -1.35; that for GGCTGCATTCCCAGATGGTTAGGTATTTTA was 0.331.
For CTAGCTGTGTAACCCTGGACAAGTTATCTT, the binding signal (log2 normalized intensity) came out at 0.887.
As for CACCCCCATCTATGCACTCTCACCTTGGGG, the binding signal (log2 normalized intensity) was 0.395.
As to GGGAAGAGAGTATGGGATGATCAGTAAGGA, the binding signal (log2 normalized intensity) was -0.104.
The value for TGTGTGTGTGTGGTGTGTGTGTGTGTGTTT was 3.3.
The value for ATGGGGGAAGGGCTGGAGACGCAGGAGATG was -1.34.
The value for AGGTCTCTGCATACCAGGTAAGTGACATGC was 0.69.
Regarding ACATTTGCGCAAACATAAAGGCAAAGGTCA, the binding signal (log2 normalized intensity) was found to be 5.6.
The value for ACTTTCAACAAGGTGGAGACCTCTGCAGGA was -1.02.
For the sequence CGTTGGTGCTCCCCCACCCTGTGTCAGCAT, the binding signal (log2 normalized intensity) was determined as 4.05.
For AGACACTTTGGCTCCAGAGTCCACATTCTT, the binding signal (log2 normalized intensity) is 3.33.
As for CATGATTGTAGCCAAACTCACAGCTTTTAT, the figure is -0.795; as for GGGCATTCTGGAGTTTGGAACCAAATCAGC, 2.89.
For TCAGATGCAGTCCAGAAGGTCAGGACCACA, the binding signal (log2 normalized intensity) was 1.36.
The value for GACTTGAGAAGACATAGTTTTTGCCCTTAA was 2.7; that for TGCTTCCAGTTCCATAATCCCCGAATGTCC was 2.97.
As for AGGGGCATTTGAGTACATGCCTCTCCCAGT, the figure is 0.468.
For the sequence TTTGCAAATGACTTTGAGAGTAAGTTTCTG, the binding signal (log2 normalized intensity) is -1.22.
On to CCCTCCCCCCACTCAAAATAGGAGTTAAGG, for which the binding signal (log2 normalized intensity) turned out to be 2.69.
Turning to TTAAGCCAAAGTCCAAGTTGGTGAGAACAG, the binding signal (log2 normalized intensity) came out at 3.07.
As for TACCTGTGCAGATATTTAACCTTTGATCTG, the figure is 8.15.
As for AAGGACTGGACCACCTCCTCAAAGAGCAGA, the binding signal (log2 normalized intensity) is -0.817.
As for AACCTGCTGCAGGAGAGATGGTCAGATTTT, the binding signal (log2 normalized intensity) stood at 0.707.
